# According to the supplement of paper PMC8728848:
# Some of the results follow.
# B1: rCnSL-A (Clitocybe nebularis) (protein)
# chain: VNPNLPGPNDVFVGFRGTNNIVGAIYEKDGIKDTPLNNGADAEMGPGSYITDGLFTARIFASGSAGNNPGTTATVCKIYASGVQWRGAPKGYIPVAYFGNGPTAEQRRQTYLRTLGLPGTAIRFGNLNTNPGQGPTAPRQMVVPPGPLRSLLKASCFPAADTRLPQTLHYFEKRVDWNIITAADSQTWGH
# How the values were obtained:
# Assay in all cases: glycan array binding signal (z-score within array); higher = stronger binding
# Settings in all cases: glycan notation: IUPAC condensed, linker removed
# [1] = target: Gal(b1-4)GlcNAc(b1-2)[Gal(b1-4)GlcNAc(b1-6)]Man(a1-6)[GlcNAc(b1-4)][Gal(b1-4)GlcNAc(b1-2)Man(a1-3)]Man(b1-4)GlcNAc(b1-4)GlcNAc
# In short: (§1)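 Arrays were curated from the Consortium for Functional Glycomics database, 3228 in total, and kept only where the protein sequence was available. Binding is expressed as a within-array Z-score. This score was averaged across arrays of the same protein sequence at different concentrations or buffers and across linkers, and negative values can be read as non-binding.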
# [2] = target: Gal(b1-4)GlcNAc(b1-2)[Gal(b1-4)GlcNAc(b1-6)]Man(a1-6)[GlcNAc(b1-4)][Gal(b1-4)GlcNAc(b1-2)[Gal(b1-4)GlcNAc(b1-4)]Man(a1-3)]Man(b1-4)GlcNAc(b1-4)[Fuc(a1-6)]GlcNAc
# In short: as §1
# [3] = target: Gal(b1-4)GlcNAc(b1-3)Gal(b1-3)GalNAc
# In short: as §1
# [4] = target: Gal(b1-4)GlcNAc(b1-3)Gal(b1-3)GlcNAc
# In short: as §1
# [5] = target: Gal(b1-4)GlcNAc(b1-3)Gal(b1-4)Glc
# In short: as §1
# [6] = target: Gal(b1-4)GlcNAc(b1-3)Gal(b1-4)GlcNAc
# In short: as §1
# [7] = target: Gal(b1-4)GlcNAc(b1-3)Gal(b1-4)GlcNAc(b1-2)Man(a1-3)[Gal(b1-4)GlcNAc(b1-3)Gal(b1-4)GlcNAc(b1-2)Man(a1-6)]Man(b1-4)GlcNAc(b1-4)GlcNAc
# In short: as §1
# [8] = target: Gal(b1-4)GlcNAc(b1-3)Gal(b1-4)GlcNAc(b1-2)Man(a1-3)[Gal(b1-4)GlcNAc(b1-3)Gal(b1-4)GlcNAc(b1-2)Man(a1-6)]Man(b1-4)GlcNAc(b1-4)[Fuc(a1-6)]GlcNAc
# In short: as §1
# [9] = target: Gal(b1-4)GlcNAc(b1-3)Gal(b1-4)GlcNAc(b1-2)[Gal(b1-4)GlcNAc(b1-3)Gal(b1-4)GlcNAc(b1-6)]Man(a1-6)[Gal(b1-4)GlcNAc(b1-3)Gal(b1-4)GlcNAc(b1-2)Man(a1-3)]Man(b1-4)GlcNAc(b1-4)GlcNAc
# In short: as §1
# [10] = target: Gal(b1-4)GlcNAc(b1-3)Gal(b1-4)GlcNAc(b1-2)[Gal(b1-4)GlcNAc(b1-3)Gal(b1-4)GlcNAc(b1-6)]Man(a1-6)[Gal(b1-4)GlcNAc(b1-3)Gal(b1-4)GlcNAc(b1-2)Man(a1-3)]Man(b1-4)GlcNAc(b1-4)[Fuc(a1-6)]GlcNAc
# In short: as §1
# [11] = target: Gal(b1-4)GlcNAc(b1-3)Gal(b1-4)GlcNAc(b1-3)Gal(b1-4)GlcNAc
# In short: as §1
# [12] = target: Gal(b1-4)GlcNAc(b1-3)Gal(b1-4)GlcNAc(b1-3)Gal(b1-4)GlcNAc(b1-2)Man(a1-3)[Gal(b1-4)GlcNAc(b1-3)Gal(b1-4)GlcNAc(b1-3)Gal(b1-4)GlcNAc(b1-2)Man(a1-6)]Man(b1-4)GlcNAc(b1-4)GlcNAc
# In short: as §1
# [13] = target: Gal(b1-4)GlcNAc(b1-3)Gal(b1-4)GlcNAc(b1-3)Gal(b1-4)GlcNAc(b1-2)Man(a1-3)[Gal(b1-4)GlcNAc(b1-3)Gal(b1-4)GlcNAc(b1-3)Gal(b1-4)GlcNAc(b1-2)Man(a1-6)]Man(b1-4)GlcNAc(b1-4)[Fuc(a1-6)]GlcNAc
# In short: as §1
# [14] = target: Gal(b1-4)GlcNAc(b1-3)Gal(b1-4)GlcNAc(b1-3)Gal(b1-4)GlcNAc(b1-2)[Gal(b1-4)GlcNAc(b1-3)Gal(b1-4)GlcNAc(b1-3)Gal(b1-4)GlcNAc(b1-6)]Man(a1-6)[Gal(b1-4)GlcNAc(b1-3)Gal(b1-4)GlcNAc(b1-3)Gal(b1-4)GlcNAc(b1-2)Man(a1-3)]Man(b1-4)GlcNAc(b1-4)[Fuc(a1-6)]GlcNAc
# In short: as §1
# [15] = target: Gal(b1-4)GlcNAc(b1-3)Gal(b1-4)GlcNAc(b1-3)Gal(b1-4)GlcNAc(b1-3)Gal(b1-4)GlcNAc(b1-2)Man(a1-3)[Gal(b1-4)GlcNAc(b1-3)Gal(b1-4)GlcNAc(b1-3)Gal(b1-4)GlcNAc(b1-3)Gal(b1-4)GlcNAc(b1-2)Man(a1-6)]Man(b1-4)GlcNAc(b1-4)GlcNAc
# In short: as §1
# [16] = target: Gal(b1-4)GlcNAc(b1-3)Gal(b1-4)GlcNAc(b1-3)Gal(b1-4)GlcNAc(b1-3)Gal(b1-4)GlcNAc(b1-2)Man(a1-3)[Gal(b1-4)GlcNAc(b1-3)Gal(b1-4)GlcNAc(b1-3)Gal(b1-4)GlcNAc(b1-3)Gal(b1-4)GlcNAc(b1-2)Man(a1-6)]Man(b1-4)GlcNAc(b1-4)[Fuc(a1-6)]GlcNAc
# In short: as §1
# [17] = target: Gal(b1-4)GlcNAc(b1-3)Gal(b1-4)GlcNAc(b1-3)Gal(b1-4)GlcNAc(b1-3)Gal(b1-4)GlcNAc(b1-2)[Gal(b1-4)GlcNAc(b1-3)Gal(b1-4)GlcNAc(b1-3)Gal(b1-4)GlcNAc(b1-3)Gal(b1-4)GlcNAc(b1-6)]Man(a1-6)[Gal(b1-4)GlcNAc(b1-3)Gal(b1-4)GlcNAc(b1-3)Gal(b1-4)GlcNAc(b1-3)Gal(b1-4)GlcNAc(b1-2)Man(a1-3)]Man(b1-4)GlcNAc(b1-4)[Fuc(a1-6)]GlcNAc
# In short: as §1
# [18] = target: Gal(b1-4)GlcNAc(b1-3)Gal(b1-4)GlcNAc(b1-3)Gal(b1-4)GlcNAc(b1-3)Gal(b1-4)GlcNAc(b1-3)Gal(b1-4)GlcNAc(b1-2)Man(a1-3)[Gal(b1-4)GlcNAc(b1-3)Gal(b1-4)GlcNAc(b1-3)Gal(b1-4)GlcNAc(b1-3)Gal(b1-4)GlcNAc(b1-3)Gal(b1-4)GlcNAc(b1-2)Man(a1-6)]Man(b1-4)GlcNAc(b1-4)GlcNAc
# In short: as §1
# [19] = target: Gal(b1-4)GlcNAc(b1-3)Gal(b1-4)GlcNAc(b1-3)Gal(b1-4)GlcNAc(b1-3)Gal(b1-4)GlcNAc(b1-3)Gal(b1-4)GlcNAc(b1-2)Man(a1-3)[Gal(b1-4)GlcNAc(b1-3)Gal(b1-4)GlcNAc(b1-3)Gal(b1-4)GlcNAc(b1-3)Gal(b1-4)GlcNAc(b1-3)Gal(b1-4)GlcNAc(b1-2)Man(a1-6)]Man(b1-4)GlcNAc(b1-4)[Fuc(a1-6)]GlcNAc
# In short: as §1
# [20] = target: Gal(b1-4)GlcNAc(b1-3)Gal(b1-4)GlcNAc(b1-3)Gal(b1-4)GlcNAc(b1-3)Gal(b1-4)GlcNAc(b1-3)Gal(b1-4)GlcNAc(b1-2)[Gal(b1-4)GlcNAc(b1-3)Gal(b1-4)GlcNAc(b1-3)Gal(b1-4)GlcNAc(b1-3)Gal(b1-4)GlcNAc(b1-3)Gal(b1-4)GlcNAc(b1-6)]Man(a1-6)[Gal(b1-4)GlcNAc(b1-3)Gal(b1-4)GlcNAc(b1-3)Gal(b1-4)GlcNAc(b1-3)Gal(b1-4)GlcNAc(b1-3)Gal(b1-4)GlcNAc(b1-2)Man(a1-3)]Man(b1-4)GlcNAc(b1-4)[Fuc(a1-6)]GlcNAc
# In short: as §1
# [21] = target: Gal(b1-4)GlcNAc(b1-3)Gal(b1-4)GlcNAc(b1-3)Gal(b1-4)GlcNAc(b1-3)Gal(b1-4)GlcNAc(b1-3)Gal(b1-4)GlcNAc(b1-3)Gal(b1-4)GlcNAc(b1-2)Man(a1-3)[Gal(b1-4)GlcNAc(b1-3)Gal(b1-4)GlcNAc(b1-3)Gal(b1-4)GlcNAc(b1-3)Gal(b1-4)GlcNAc(b1-3)Gal(b1-4)GlcNAc(b1-3)Gal(b1-4)GlcNAc(b1-2)Man(a1-6)]Man(b1-4)GlcNAc(b1-4)GlcNAc
# In short: as §1
# [22] = target: Gal(b1-4)GlcNAc(b1-3)Gal(b1-4)GlcNAc(b1-3)GalNAc
# In short: as §1
# [23] = target: Gal(b1-4)GlcNAc(b1-3)Gal(b1-4)GlcNAc(b1-3)[Gal(b1-4)GlcNAc(b1-3)Gal(b1-4)GlcNAc(b1-6)]GalNAc
# In short: as §1
binder,measurement,setting,value
B1,glycan array binding signal (z-score),[1],0.925
same,glycan array binding signal (z-score),[2],0.621
same,glycan array binding signal (z-score),[3],-0.149
same,glycan array binding signal (z-score),[4],-0.188
same,glycan array binding signal (z-score),[5],0.188
same,glycan array binding signal (z-score),[6],-0.174
same,glycan array binding signal (z-score),[7],1.2
same,glycan array binding signal (z-score),[8],0.835
same,glycan array binding signal (z-score),[9],0.419
same,glycan array binding signal (z-score),[10],3.11
same,glycan array binding signal (z-score),[11],0.413
same,glycan array binding signal (z-score),[12],2.09
same,glycan array binding signal (z-score),[13],1.24
same,glycan array binding signal (z-score),[14],5.46
same,glycan array binding signal (z-score),[15],8.55
same,glycan array binding signal (z-score),[16],2.68
same,glycan array binding signal (z-score),[17],10.3
same,glycan array binding signal (z-score),[18],2.36
same,glycan array binding signal (z-score),[19],5.05
same,glycan array binding signal (z-score),[20],13.6
same,glycan array binding signal (z-score),[21],7.72
same,glycan array binding signal (z-score),[22],0.164
same,glycan array binding signal (z-score),[23],0.634
